# Measured values published in publication PMC4336329 (PLoS ONE, 2015).
# In all, about 310,000 compounds went through this assay and about 14,000 (4.5%) showed an effect of 50% or more. The effect is printed as a negative number. The list shows a part of the results.
# Target: human ether-à-go-go-related gene (hERG) potassium channel (human, UniProt Q12809)
# Test: primary screen, population patch clamp on CHO cells stably expressing hERG
# 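Also: peak tail current of the secondary pulse compared with the same well before compound.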
# Sequence of human ether-à-go-go-related gene (hERG) potassium channel (Q12809 whole entry, looked up): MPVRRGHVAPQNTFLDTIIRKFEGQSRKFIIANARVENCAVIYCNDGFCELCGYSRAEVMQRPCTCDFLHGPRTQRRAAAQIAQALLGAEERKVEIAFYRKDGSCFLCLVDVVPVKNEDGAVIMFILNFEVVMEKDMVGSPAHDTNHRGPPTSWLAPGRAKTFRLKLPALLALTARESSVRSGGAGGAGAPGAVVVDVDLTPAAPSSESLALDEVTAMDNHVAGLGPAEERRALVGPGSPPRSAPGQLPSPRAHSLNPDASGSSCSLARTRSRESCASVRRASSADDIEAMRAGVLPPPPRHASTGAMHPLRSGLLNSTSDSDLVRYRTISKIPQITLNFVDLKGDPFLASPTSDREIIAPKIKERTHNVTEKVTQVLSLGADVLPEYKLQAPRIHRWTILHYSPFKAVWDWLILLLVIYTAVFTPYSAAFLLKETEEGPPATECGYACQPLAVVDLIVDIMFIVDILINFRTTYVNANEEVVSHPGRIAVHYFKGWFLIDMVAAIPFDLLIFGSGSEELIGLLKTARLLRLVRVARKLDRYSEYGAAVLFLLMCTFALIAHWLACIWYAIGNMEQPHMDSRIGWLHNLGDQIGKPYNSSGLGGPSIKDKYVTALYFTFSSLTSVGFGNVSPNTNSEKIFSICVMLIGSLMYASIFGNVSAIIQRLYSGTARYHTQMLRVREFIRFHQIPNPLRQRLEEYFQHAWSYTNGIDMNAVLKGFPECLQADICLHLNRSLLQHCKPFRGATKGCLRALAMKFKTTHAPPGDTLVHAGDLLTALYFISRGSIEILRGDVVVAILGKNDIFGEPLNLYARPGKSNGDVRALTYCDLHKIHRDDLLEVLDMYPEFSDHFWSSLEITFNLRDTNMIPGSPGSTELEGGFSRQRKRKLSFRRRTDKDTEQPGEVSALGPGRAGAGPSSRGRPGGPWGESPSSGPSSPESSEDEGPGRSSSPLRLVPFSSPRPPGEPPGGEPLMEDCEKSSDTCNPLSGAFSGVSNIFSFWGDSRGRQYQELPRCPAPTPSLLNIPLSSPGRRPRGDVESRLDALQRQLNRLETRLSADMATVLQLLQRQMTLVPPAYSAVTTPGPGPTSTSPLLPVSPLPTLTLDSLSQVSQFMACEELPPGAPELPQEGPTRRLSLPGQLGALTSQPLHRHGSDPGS
row,SMILES,"hERG current change (%, negative = inhibition) at 10uM [%]"
1,O=S(=O)(c1ccc(Cl)cc1)N1CCCCC1c1cccnc1 (stereo not drawn),-22.9
2,CCOC(=O)c1c(NC(=O)CSc2nnc(CNc3ccc(F)cc3)o2)sc(C(C)=O)c1C,4.69
3,Cc1ccc(NC(=O)/C=C/c2ccc(Cl)cc2)nc1,17.9
4,CCn1c(=O)c2cc(C(=O)NC(C)C)sc2c2ccccc21,1.39
5,COc1ccc(-c2csc(NCCc3nc4cc(Cl)c(Cl)cc4n3CCCO)n2)cc1,0.123
6,COc1cccc(NC(=O)CS(=O)(=O)Cc2nc(-c3ccc(C)cc3)oc2C)c1,16.7
7,COc1ccc(C(=O)NCCc2ccc(Cl)cc2)cc1S(=O)(=O)N1CCCCC1C (stereo not drawn),-52.3
8,Cc1cc(NC(=O)COc2nnc(-c3ccccc3)c3ccccc23)no1,-14.7
9,COc1ccc(C(=O)CSc2nnc(CNc3ccc(C)cc3C)n2Cc2ccco2)cc1,6.88
10,CC(C)c1c(O)nc(SCCC(=O)O)[nH]c1=O,2.49
11,Cc1cc(/C(N)=N/OC(=O)c2ccccc2Cl)no1,13.7
12,CC(=O)Nc1ccc(NC(=O)C(C)OC(=O)/C=C/c2cnc3ccccc3n2)cc1 (stereo not drawn),4.73
13,O=C(c1ccco1)N1CCN(C2CC(=O)N(c3ccc4c(c3)OCO4)C2=O)CC1 (stereo not drawn),-16.8
14,O=C1C2C3c4ccccc4C(c4ccccc43)C2C(=O)N1c1cccc2cccnc12 (stereo not drawn),14.5
15,COCCN(C(=O)C1=COCCO1)c1c(N)n(CC(C)C)c(=O)[nH]c1=O,0.285
16,CC1=C(C(=O)N2CCOCC2)C(c2ccsc2)C2=C(CCCC2=O)N1 (stereo not drawn),1.43
17,COc1ccc(CCN(C)C(=O)CSc2nnc(C3CC3)n2N)cc1OC,-22.5
18,O=S(=O)(Nc1nc2ccccc2nc1-[n+]1cccc(N=C([O-])c2ccccc2Cl)c1)c1ccccc1,1.73
19,Cc1[nH]n2c(=O)cc(-c3ccc([N+](=O)[O-])cc3)nc2c1-c1ccccc1,-3.21
20,Cc1noc(C)c1COC(=O)C(c1ccccc1)c1ccccc1,6.08
21,Cc1[nH]n(-c2ccc([N+](=O)[O-])cc2)c(=O)c1C=NCC1CCCO1 (stereo not drawn),0.91
22,CC(C)C(c1nnnn1C(C)(C)C)N1CCN(Cc2cccnc2)CC1.Cl (stereo not drawn),7.59
23,Cc1ccc(OCc2ccc(C(=O)NNC(=S)NCC3CCCO3)o2)c([N+](=O)[O-])c1 (stereo not drawn),-17.1

row,SMILES,"hERG current change (%, negative = inhibition) at 10uM [%]"
1,Cc1ccc(/C=C/S(=O)(=O)N2CCC(C(=O)O)CC2)cc1,16.1
2,COCCn1c(=S)[nH]c2cc(C(=O)N3CCN(c4ccc(F)cc4)CC3)ccc2c1=O,-18.8
3,CCN1CCN(c2c(Cl)cccc2NC(=O)c2ccco2)CC1,-73.4
4,COc1ccc2nc(SCC(=O)Nc3ccc(S(=O)(=O)Nc4onc(C)c4C)cc3)[nH]c2c1,-0.044
5,O=C1/C(=C/c2cccs2)N=C(c2cccs2)N1Nc1ccccc1,-6.58
6,CCNC(=O)COC(=O)/C=C/c1cccc([N+](=O)[O-])c1,1.68
7,CN(C(=S)Nc1ccc(F)cc1)C1(c2ccccc2Cl)CCCCC1=O (stereo not drawn),-4.67
8,Cl.c1ccc(-c2cc(-c3ccc(N4CCOCC4)cc3)nc3ccccc23)cc1,4.95
9,CC1=NN(c2ccccc2)C(=O)C1C=Nc1ccccc1O (stereo not drawn),4.96
10,CCn1cnc2scc(-c3ccc(OC)cc3)c2c1=O,1.82
11,CCn1c(SCC(=O)Nc2ccc(C(C)=O)cc2)nc2nc3c(cc2c1=O)CCCC3,-20.5
12,O=C1[C@H](CC[C@H](O)c2ccc(F)cc2)[C@@H](c2ccc(O)cc2)N1c1ccc(F)cc1,-7.87
13,CCCc1cc(=O)[nH]c(SCC(=O)N(CC)c2c(N)n(Cc3ccccc3)c(=O)[nH]c2=O)n1,18
14,Cc1ccc2c(c1)COc1c3ccc(C(=O)NCCO)cc3nn1-2,1.96
15,O=C(NNC(=O)c1ccncc1)NC1CCCCC1,39.6
16,CCSc1ccccc1C(=O)Nc1ccc(S(=O)(=O)NC(C)=O)cc1,7.71
17,O=C(NCC1CCCO1)C12CN(Cc3ccccc3)CC1C(c1cccc([N+](=O)[O-])c1)=NO2 (stereo not drawn),-45.2
18,CCn1cc(CNC(=O)CCSc2nc(-c3ccco3)cc(C(F)(F)F)n2)cn1,-9.22
19,C/C(=N/Nc1ccc(C(=O)O)cc1)c1ccc(O)c(O)c1O,5.77
20,Cc1cccc(CCNS(=O)(=O)c2ccc(S(=O)(=O)N3CCCCC3)cc2)c1,-0.315
21,C=C(C)C(=O)Nc1cccc(C2=NOC3(C2)C[C@@H](C(N)=O)N(C(=O)CCCCC)C3)c1 (stereo partly drawn),-23.8
22,CC(=O)NS(=O)(=O)c1ccc(N=NN2CCOCC2)cc1,-1.2
